The record followed here is patent US20220023399A1, “BLOOD COMPONENT POTENTIATION OF LYTIC PROTEIN ANTI-BACTERIAL ACTIVITY AND METHODS AND USES THEREOF” (priority 2017, published 2022).

This assay relates to S. aureus strain MW2. As to the kind of experiment: Lytic assay (loss of optical density) and specific activity. The note with it: in the absence of PlySs2 (CF-301); all concentrations tested. The method, then: The effect of HuLYZ and HSA on PlySs2 (CF-301) activity was examined using additional formats. First, the time-kill assay was used to combine a sub-MIC amount of PlySs2 (CF-301) with a range of HuLYZ concentrations from 1-35 μg/mL (FIG. 8A). While HuLYZ alone has no anti-staphylococcal activity (21), the concentration in human blood is reported to vary between 1 and 35 μg/mL (22). At HuLYZ concentrations above 5 μg/mL a synergistic interaction was detected based on ≥2-log 10 CFU/mL reductions at 24 hours for the combinations compared to PlySs2 (CF-301) alone. In a second in vitro assay based on loss of optical density in a treated culture, the addition of both HuLYZ (FIG. 8B) and HSA (FIG. 8C) across a range of concentrations stimulated high-level PlySs2 (CF-301) activity. […]
Lytic assays. […] Samples were mixed and optical density at 600 nm (OD600) was followed for 15 minutes at room temperature in a SpectraMax M5 Microplate Reader (Molecular Devices).
A variation of the lytic assay was performed to determine PlySs2 (CF-301) specific activity. […] Each plate was read at 600 nm for 15 minutes (shaking for 3 seconds between reads) at room temperature using a microplate reader as above. The specific activity in Units/mg of PlySs2 (CF-301) was determined based on the PlySs2 (CF-301) dilutions displaying curves just above and below the optical density that is 50% of the buffer control at 15 minutes.

In the case of “HSA: human serum albumin, purified or recombinantly expressed; SEQ ID NO:1”, the “antibacterial activity of the blood component alone” value is “no antibacterial activity”.
